According to the supplement of paper PMC10369915:
The other results are listed elsewhere or left out. No stated cut-off is given here; in the data, active = 3.2 or more and inactive = the rest. The signal is at background level for most entries.

Experiments:
Assay in all cases: enrichment score (SH2-bound / input frequency) (ratio); bacterial display of known human phosphotyrosine sites (pTyr-Var adds point mutants) read by sequencing; higher = stronger binding; tyrosines were phosphorylated by kinases first
Settings in all cases: peptide library: Human pTyr
[1] = biological target: SHP2 C-SH2 domain E139D
[2] = biological target: SHP2 C-SH2 domain wild-type
[3] = biological target: SHP2 N-SH2 domain L43F
[4] = biological target: SHP2 N-SH2 domain T42A
[5] = biological target: SHP2 N-SH2 domain T52S
[6] = biological target: SHP2 N-SH2 domain wild-type
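Further: displayed peptides selected on beads carrying the immobilized SH2 domain, with library peptides lacking any tyrosine serving as negative controls.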

SDPERSDYEEQQLQK [ALKB5_HUMAN_71]
enrichment score [1]: inactive: 0.905 | enrichment score [2]: inactive: 0.911 | enrichment score [3]: inactive: 1.15 | enrichment score [4]: inactive: 0.886 | enrichment score [5]: inactive: 1.32 | enrichment score [6]: inactive: 1.43

DIKNDSNYVVKGNAR [KIT_HUMAN_823]
enrichment score [1]: inactive: 0.821 | enrichment score [2]: inactive: 0.866 | enrichment score [3]: inactive: 0.855 | enrichment score [4]: inactive: 0.704 | enrichment score [5]: inactive: 0.784 | enrichment score [6]: inactive: 0.756

GGTPYAEYGGWYKAC [KLC4_HUMAN_449]
enrichment score [1]: inactive: 1.42 | enrichment score [2]: inactive: 1.09 | enrichment score [3]: inactive: 1.21 | enrichment score [4]: inactive: 1.04 | enrichment score [5]: inactive: 1.26 | enrichment score [6]: inactive: 1.36

GGTPAAEYGGWAKAC [KLC4_HUMAN_449_YA]
enrichment score [1]: inactive: 0.62 | enrichment score [2]: inactive: 0.599 | enrichment score [3]: inactive: 0.622 | enrichment score [4]: inactive: 0.637 | enrichment score [5]: inactive: 0.685 | enrichment score [6]: inactive: 0.601

YLKETHCYDPGSNTW [KLH22_HUMAN_466]
enrichment score [1]: inactive: 1.23 | enrichment score [2]: inactive: 1.02 | enrichment score [3]: inactive: 1.13 | enrichment score [4]: inactive: 1.18 | enrichment score [5]: inactive: 1.25 | enrichment score [6]: inactive: 1.27

ALKETHCYDPGSNTW [KLH22_HUMAN_466_YA]
enrichment score [1]: inactive: 1.13 | enrichment score [2]: inactive: 0.953 | enrichment score [3]: inactive: 1.01 | enrichment score [4]: inactive: 1.02 | enrichment score [5]: inactive: 1.12 | enrichment score [6]: inactive: 1.27

SDFEGFSYVNPQFVH [KPCA_HUMAN_658]
enrichment score [1]: inactive: 0.783 | enrichment score [2]: inactive: 0.66 | enrichment score [3]: inactive: 0.834 | enrichment score [4]: inactive: 0.842 | enrichment score [5]: inactive: 0.842 | enrichment score [6]: inactive: 0.799

IKQAKIHYIKNHEFI [KPCD_HUMAN_155]
enrichment score [1]: inactive: 1.3 | enrichment score [2]: inactive: 1.92 | enrichment score [3]: inactive: 2.18 | enrichment score [4]: inactive: 1.43 | enrichment score [5]: inactive: 1.35 | enrichment score [6]: inactive: 2.02

SSEPVGIYQGFEKKT [KPCD_HUMAN_313]
enrichment score [1]: inactive: 0.778 | enrichment score [2]: inactive: 0.756 | enrichment score [3]: inactive: 0.82 | enrichment score [4]: inactive: 0.506 | enrichment score [5]: inactive: 0.738 | enrichment score [6]: inactive: 0.791

STFDAHIYEGRVIQI [KPCD_HUMAN_64]
enrichment score [1]: inactive: 0.621 | enrichment score [2]: inactive: 0.617 | enrichment score [3]: inactive: 0.73 | enrichment score [4]: inactive: 0.633 | enrichment score [5]: inactive: 0.635 | enrichment score [6]: inactive: 0.613

NDTGSRYYKEIPLSE [KPCD1_HUMAN_463]
enrichment score [1]: inactive: 0.732 | enrichment score [2]: inactive: 0.697 | enrichment score [3]: inactive: 0.836 | enrichment score [4]: inactive: 0.945 | enrichment score [5]: inactive: 0.853 | enrichment score [6]: inactive: 0.838

SETTVELYSLAERCR [KPCT_HUMAN_90]
enrichment score [1]: inactive: 0.984 | enrichment score [2]: inactive: 0.784 | enrichment score [3]: inactive: 0.83 | enrichment score [4]: inactive: 0.941 | enrichment score [5]: inactive: 1.04 | enrichment score [6]: inactive: 1.12

KITLDNAYMEKCDEN [KPYM_HUMAN_148]
enrichment score [1]: inactive: 1.06 | enrichment score [2]: inactive: 1.03 | enrichment score [3]: inactive: 1 | enrichment score [4]: inactive: 0.993 | enrichment score [5]: inactive: 1.05 | enrichment score [6]: inactive: 0.832

KENLIREYVKQTWNL [KSYK_HUMAN_131]
enrichment score [1]: inactive: 1.09 | enrichment score [2]: inactive: 1.16 | enrichment score [3]: inactive: 1.07 | enrichment score [4]: inactive: 1.23 | enrichment score [5]: inactive: 1.15 | enrichment score [6]: inactive: 1.35

TREEAEDYLVQGGMS [KSYK_HUMAN_28]
enrichment score [1]: inactive: 0.764 | enrichment score [2]: inactive: 0.543 | enrichment score [3]: inactive: 0.655 | enrichment score [4]: inactive: 0.657 | enrichment score [5]: inactive: 0.805 | enrichment score [6]: inactive: 0.636

TEVAESPYADPEEIR [KSYK_HUMAN_352_YA]
enrichment score [1]: inactive: 0.961 | enrichment score [2]: inactive: 0.83 | enrichment score [3]: inactive: 0.831 | enrichment score [4]: inactive: 1.04 | enrichment score [5]: inactive: 1.01 | enrichment score [6]: inactive: 0.92

EIRPKEVYLDRKLLT [KSYK_HUMAN_364]
enrichment score [1]: inactive: 0.651 | enrichment score [2]: inactive: 0.553 | enrichment score [3]: inactive: 0.704 | enrichment score [4]: inactive: 0.82 | enrichment score [5]: inactive: 0.748 | enrichment score [6]: inactive: 0.802

VLLVTQHYAKISDFG [KSYK_HUMAN_507]
enrichment score [1]: inactive: 2.4 | enrichment score [2]: active: 3.31 | enrichment score [3]: inactive: 2.23 | enrichment score [4]: inactive: 2.1 | enrichment score [5]: inactive: 2.51 | enrichment score [6]: inactive: 2.6
